Test results taken from the supplement of paper PMC11417369.
± gives the standard deviation of the averaged measurements. The list shows a part of the results.

System: PfAP2-EXP AP2 domain (GST-tagged)
Assay: gcPBM binding intensity (ln(normalized median fluorescence intensity)); higher = stronger DNA binding
How it was run: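 An Agilent 4 × 180k array carrying primer-extended double-stranded 36-bp intergenic genomic probes and negative controls received GST-tagged P. falciparum DNA-binding domains expressed in E. coli, about 25 μg on average, for 1 h. The binding buffer contained 1× PBS, 1% milk, 0.2 mg/ml BSA, 0.5% salmon testes DNA and 0.03% Triton X-100. Binding intensity is the top Masliner-normalised natural-log median intensity across replicate spots of either probe orientation, read after Alexa488 anti-GST antibody staining and a 488 nm scan.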

Sequence	gcPBM binding intensity (ln)
CAAAACCTAATATGTACACACATATACATCACACTT [CACACA_site7480]	8.57 ± 0.32
TTTCTTTCGAATGCTTCACACATTACTCTTAAATAG [CACACA_site5265]	8.82 ± 0.47
AAATGTGAACTATAATAATTTCAACGTCTGATATAA [TGCATGCA_negctrl_site440]	8.27 ± 0.51
ATTTTAAATTAAATTACACACTACGAATAATATATT [CACACA_site4016]	8.43 ± 0.42
ATATTTCTGTCAAGCACACATAATATTAATATATGT [CACACA_site318]	8.61 ± 0.23
AATAAATTATATATCACACATATATATTTATATTTA [CACACA_site5964]	8.13 ± 0.23
ACATATAAAATATTCACACACAAGTTATAGTTCTCG [CACACA_site3626]	8.41 ± 0.41
TTTCTTTTCTTCTCTATTTTTTTTTCACGGCATTAT [TGCATGCA_negctrl_site484]	8.53 ± 0.47
AATATAAGAAAAATAACACACACATAAACATATATA [CACACA_site8899]	8.9 ± 0.41
ACATTAAAAAATTGTTTGCACTATATAAAATATTAA [GTGCAC_site9728]	8.54 ± 0.13
ATTCATATGAAACACACACACACACCCATAAAAAAA [CACACA_site3246]	8.79 ± 0.56
ATTTTTTACATACTCAAATGTTTTAATTTTTTATAT [CACACA_negctrl_site1213]	8.47 ± 0.45
TTTTTTTTTTTTTACACACACAAAATATTATAGGTA [CACACA_site7209]	8.41 ± 0.51
TCTTTTCAATTTTATATGATCTTAATATTTTATGAA [GTGCAC_negctrl_site294]	8.36 ± 0.45
ATTTTGGAAATAATATGTACATATACATAATATATA [XGTACX_site4177]	8.36 ± 0.29
CGAACACAAACACAAACACACATCATATATATATAT [CACACA_site4857]	9.97 ± 0.36
AATATACAAAAAAAAAAAAAAAAAAAAAAGATGGAA [TGCATGCA_negctrl_site550]	8.27 ± 0.57
TGAATTTACAAAATCATGCACTTAATTACAGAATAA	8.38 ± 0.26
AACAAAGGATTTATATATACATACATACATACATAA [GTGCAC_negctrl_site469]	8.35 ± 0.33

Sequence	gcPBM binding intensity (ln)
ATAAAAAAAAAAAGAAGTACATGTATTAAAATTTAT [XGTACX_site3927]	9.03 ± 0.35
AGCAAAATGAAATAAATTGGAAAATATTACTGAACG [CACACA_negctrl_site1433]	8.56 ± 0.51
TTTATTATATTTTTTTGTACATATTGATGTATATAA [XGTACX_site6527]	8.59 ± 0.28
GCAAATCTTATATGAAGTACATATCTTATAAATAAA [XGTACX_site6903]	8.23 ± 0.42
GGTACATACAGACACACACACAAAAAAAAAAAAATA [CACACA_site6844]	8.48 ± 0.61
AAAAGTCTTCAAATTTGTACATATATATATATATAT [XGTACX_site3404]	10.29 ± 0.092
TTAATATTAATTATATGTACATATAATATATATATA [XGTACX_site1757]	9.18 ± 0.13
ATCTTTTCATATTGCTGTACAAATTATTTTCATTCG [XGTACX_site492]	9.05 ± 0.45
ATGTTAAACAAATCTATACACACGTATATGACAAAA [CACACA_site1783]	8.6 ± 0.35
TGTATAAAATTCCATTGTACATATTATTTTACGACA [XGTACX_site7764]	8.44 ± 0.3
GAGAAATGGAGACACACACACATATTATATATATAT [CACACA_site1532]	9.7 ± 0.28
GTATACATGCAAATTTTTATTTACAACCCCAAAAAG [XGTACX_negctrl_site255]	9.1 ± 0.42
TTTTCATAATATACATGTACATATATAAATTATTAA [XGTACX_site5206]	8.46 ± 0.44
TTTTTTTCACAAAATACACACAATATATTTTATATC [CACACA_site1138]	8.3 ± 0.36
TATTATAATATGCCTTGTACATATAACAAATTTATT [XGTACX_site108]	8.46 ± 0.36
ATGAACAAGTGGCACACACACATTATAACTAATTTA [CACACA_site5731]	8.56 ± 0.35
TTTATTTATTACTAAAGTACTAAATCATATTATTAT [XGTACX_site2574]	8.14 ± 0.4
AAAATAATATTTCCTTGTACACATATGTATTTGTTC [XGTACX_site4430]	8.86 ± 0.43
TTCTTTTTTTTTATCACACATATTACAATCTAGTGC [CACACA_site4697]	8.73 ± 0.41

Sequence	gcPBM binding intensity (ln)
ATATATAATTTTTACACACGCAATAAATATATATAT [CACACA_site4283]	9.265 ± 0.078
TTTTGGATTGAGGACCTTTTTATAGAATTATGTTTT [TGCATGCA_negctrl_site544]	8.44 ± 0.38
TTAACATAAATATATACACACCAATGATGGCATTTA [CACACA_site4952]	8.13 ± 0.48
TATATATAATATATATGTACGTATATATATAATATA [XGTACX_site8383]	8.38 ± 0.17
ATGTTATAAGATTTATGTACACACATATACACACCT [XGTACX_site1316]	8.84 ± 0.42
GTTTCCTTAATATTCACACACATATATATAATATAT [CACACA_site1856]	8.95 ± 0.33
TTTATTTTCCAAAGGGTGCACATAGTTGAAACGATA	9.71 ± 0.63
AATAAAGCAATAAATACACACATATTTATATTTATA [CACACA_site7390]	8.24 ± 0.34
GGTATACACAAGTATACACACATATATATATATATA [CACACA_site9063]	10.2 ± 0.22
CGTGAATATATGATATGTACTTATAAAAATTTGTGC [XGTACX_site5480]	8.51 ± 0.38
ATAAATATCTAGGGTTCACACATTATATATCTGTAT [CACACA_site5702]	8.35 ± 0.48
ACAAAGTTATAATTCTTGCACTTTAAGGTTCATTTA	8.28 ± 0.17
TTTTCCTCTTAAAATATACACACTGATTTAAGAAAA [CACACA_site3301]	8.27 ± 0.34
ACGTAATAAAATAGTTGTACAACTTTTTATAATATA [XGTACX_site4393]	8.68 ± 0.15
TTTTTTTTTTTTTTTTTTTTTTTTTTGTTCAGGCCT [GTGCAC_negctrl_site143]	8.28 ± 0.4
AAACGATTAATGTGTACACACATAGTTATAAACCTA [CACACA_site2110]	8.51 ± 0.36
TCATAAATATGAAAAAGTACAAAGGTAGATTTTGAA [XGTACX_site4535]	8.48 ± 0.3
TATATATATATTATATGTACGTATGTATGTATATAT [XGTACX_site6451]	9.44 ± 0.22
AAAAAAAAAAAAAAATATATATATATATACATACAT [CACACA_negctrl_site317]	8.39 ± 0.16
